Results reported in the supplement of paper PMC11417369.
± gives the standard deviation of the averaged measurements. The list shows a part of the results.

These sequences were tested on PfAP2-G AP2 domain (GST-tagged) (assay: gcPBM binding intensity (ln(normalized median fluorescence intensity)); higher = stronger DNA binding).
How it was run: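 Alexa488 anti-GST antibody, scanned at 488 nm, detected GST-tagged P. falciparum DNA-binding domains that had been expressed in E. coli and incubated for 1 h on an Agilent 4 × 180k array. The array carried primer-extended double-stranded 36-bp intergenic genomic probes and negative controls. Binding intensity is the highest Masliner-normalised natural-log median intensity across replicate spots of either orientation of each probe.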

Row | Sequence | gcPBM binding intensity (ln)
1 | ATAAATAAATAAATCTGTACATATGTATATGTATAT [XGTACX_site4537] | 10.9 ± 0.45
2 | AATTAAAAAAAAAAAAAAAAAAAAAAATGAAAAAAA [CACACA_negctrl_site1073] | 9.44 ± 0.057
3 | AAAAAAAAAAAAAAAAGTACATACAACATTATGAAA [XGTACX_site207] | 11.4 ± 0.7
4 | TAATTATTTTTATATTGTACAATATGTAAATATATA [XGTACX_site592] | 10.8 ± 0.58
5 | AAAAAAGAAAAAAAGTGTACAATATTTATTACATAT [XGTACX_site2277] | 11.3 ± 0.83
6 | ATAATCCTTGGACACACACACACACTAGTAAATAAA [CACACA_site4423] | 10.9 ± 0.57
7 | AACCCAAAATAATTATGTACATATTTTTAAATATAT [XGTACX_site6487] | 11.3 ± 0.77
8 | TTTGTGTATATAACAGTGCAATATTATAAATATAAA [GTGCAC_site9750] | 9.955 ± 0.092
9 | GCAAAGCACAAATATGCATGTAGATATAGAATAATG [TGCATGCA_site382] | 9.87 ± 0.11
10 | CATTATATATATTACTAAAAATTTTACCCCTTAGCT [CACACA_negctrl_site302] | 10.1 ± 0.15
11 | ATGTATATAAATATACGTACATAAATATAAGTATAG [XGTACX_site7155] | 11.5 ± 0.91
12 | ATACATGAATAAATATGTACACATATAAAAACATAT [XGTACX_site2740] | 11.5 ± 0.88
13 | TATATTTCATTATATTGTACAAAATATATATATTAT [XGTACX_site4644] | 10.7 ± 0.4
14 | TTTTTTCTTTTTATGTGTACTTATTTTATTTAATAA [XGTACX_site1080] | 11.7 ± 1.1
15 | ATTATTTGAACAACAAAAAAAAAGAAAAGAAAAGAA [CACACA_negctrl_site1031] | 10.11 ± 0.042
16 | TCATATTATAAATAAATAAATAAATATATATATATA [CACACA_negctrl_site577] | 9.72 ± 0.46
17 | AAATCGTAATATATTTGTACTTATTTGAAAAATCCA [XGTACX_site8141] | 11.1 ± 0.72
18 | TTTTAACAAAACTAAATAATCATATATATAAGATAT [GTGCAC_negctrl_site298] | 9.59 ± 0.13
19 | CATTTCTATATAAGCACACACGTGGAATTTTTTTTT [CACACA_site5537] | 10.23 ± 0.057
20 | TTTTTTTTCTTTTTTTTAAGAAATAAATAAATAATT [XGTACX_negctrl_site137] | 9.66 ± 0.35
21 | AACACGCGCAGACACACACACACACGCACATATATA [CACACA_site7104] | 10.5 ± 0.33
22 | ATATACTTTTCAATGTGTACTTATGAATATATATGT [XGTACX_site7972] | 11.5 ± 0.83

Row | Sequence | gcPBM binding intensity (ln)
23 | TATTTTCAAAATGTTGTACACACAAAAAAAAAAAAA [CACACA_site8437] | 11.5 ± 1.1
24 | TTATTTCTAACATGATGTACTTTTATATTATATAAT [XGTACX_site3574] | 11.2 ± 0.88
25 | TTTTTTTTATATATCTGTACATATATATATATATAT [XGTACX_site8280] | 11 ± 0.68
26 | TATTTATAAATATGTGTGCACAATTTATTTTATAAT | 10.4 ± 0.2
27 | ATATTAAATATTATCACACACATAATTATTTCCATA [CACACA_site2334] | 9.96 ± 0.071
28 | CACTTAAAAAGCTAACGTACAAATACACATATATAA [XGTACX_site1851] | 11.1 ± 0.61
29 | AAAAACAATTTAATCACACATATATGTCACAAAGAT [CACACA_site5043] | 10.125 ± 0.007
30 | TAATAATAGAAACACACACACATAGACATATATATA [CACACA_site1307] | 9.79 ± 0.042
31 | ATGATTATACAAAATATACACACGTGTAGACAAATA [CACACA_site1175] | 10.3 ± 0.11
32 | ATATATATATATATATGTACATACATATTGTTTGGT [XGTACX_site2284] | 11.1 ± 0.46
33 | CAAAATATTTTTTCCTGTACATAATTCCTATTTCAC [XGTACX_site3590] | 11.1 ± 0.59
34 | ATATAATAATATGGTTGTACATAAATAACACATGAA [XGTACX_site6592] | 11.3 ± 0.66
35 | GATATCCTTATATTTGCACACACACCCAATAAAATG [CACACA_site1028] | 10.5 ± 0.28
36 | AAAAAATACAGACACACACACACACGCATATAAATA [CACACA_site7644] | 10.3 ± 0.29
37 | TATATATATAACAGAATGCACTTTATATGTTCATAT [GTGCAC_site9880] | 9.905 ± 0.007
38 | TATACGTATACCTATACACACATATATTTATTTATA [CACACA_site6716] | 10.3 ± 0.19
39 | TTTTTTTATTTTGTATGTACATATCATTTGATATTC [XGTACX_site8449] | 11.1 ± 0.71
40 | TAATAAATTCATAATTGTACATTGAAGTATTATGCA [XGTACX_site5121] | 10.6 ± 0.32
41 | TTGTTTATATATATATGTACATATTTTAAGGCATCC [XGTACX_site6976] | 11.3 ± 0.86
42 | CCACGTATACGATGCACACGTATGCTTTATATATAG [CACACA_site4108] | 10.165 ± 0.007
43 | ATTAAATCCGCACGCACACACACATATTAAGAAAAA [CACACA_site6062] | 10.6 ± 0.54
44 | GTTGAAAAAAATATATGTACGTATATATGTATGTAT [XGTACX_site8201] | 11.5 ± 0.97

Row | Sequence | gcPBM binding intensity (ln)
45 | AGTAGCGGCGGTATCATGCACACGTATAGATTGTAA [CACACA_site1587] | 10.3 ± 0.23
46 | TTGGTAAATATATTTTGAATATAAGAAATATAGACG [CACACA_negctrl_site1634] | 10.08 ± 0.071
47 | ATTATTACTATATGTGTACACATCAACTGGTTTGAT [CACACA_site5563] | 11.6 ± 0.97
48 | AAAATATATTATTATTGTACATATATTTTCATTTAC [XGTACX_site4593] | 11.1 ± 0.49
49 | TAAATATATTTATAAGCACACACTAATAAACCCACA [CACACA_site390] | 10.6 ± 0.38
50 | AATTTTTATACGGATACACACAAAAAAAAATAAAAA [CACACA_site897] | 10.5 ± 0.45
51 | TTTATTTTGTTTATGGTGCATTTTATGTAAATATAT | 10.2 ± 0.28
52 | ATATATTATCTGTACACACACATATAAGGGATTATA [CACACA_site4180] | 11.5 ± 0.87
53 | AATAAATAAATAAATAAATAAATATATATATATATA [GTGCAC_negctrl_site330] | 9.81 ± 0.49
54 | TAATGACAATAAAAATAAATAAATAAAAAAAAAAAA [TGCATGCA_negctrl_site321] | 9.51 ± 0.59
55 | AAATTACCCATCCATACACACATATTTTTTTTAATT [CACACA_site2189] | 10.3 ± 0.16
56 | GATACAGATGGACACACACACATACATAAATACATA [CACACA_site5833] | 11.1 ± 0.71
57 | AAGGCATATATAATTTGTACATATTAAGAATTAGAT [XGTACX_site8660] | 10.7 ± 0.35
58 | AAGAAAATAAAAAGGTAAATATGTATAAATAAATAA [TGCATGCA_negctrl_site88] | 9.58 ± 0.23
59 | TGAAATAAAATTATTTGTACATATCGGAAAAAAAAA [XGTACX_site7131] | 10.8 ± 0.4
60 | TTTTTTGAAAATAAATGTACGAATTTTATATTTAAA [XGTACX_site2768] | 10.9 ± 0.84
61 | ATAATTATATACCATGCACACAAATATTCATACAGG [CACACA_site9343] | 10.16 ± 0.064
62 | AAGAACCATATTTAAACACACATACCTATATAAATA [CACACA_site7553] | 9.87 ± 0.014
63 | GCACAAATATATATATATATATATATATATATATAT [GTGCAC_negctrl_site661] | 9.8 ± 0.44
64 | TTATGCATATATTATGCATGTAGTTTTAAATCACAT [TGCATGCA_site104] | 9.63 ± 0.085
65 | TATATACACATTTTTATACACACTTGTTTTATAAAA [CACACA_site8139] | 10.3 ± 0.28
66 | AAAAAATACATACATACACACATATTTATTTATATA [CACACA_site6554] | 9.91 ± 0.099

Row | Sequence | gcPBM binding intensity (ln)
67 | TATATATATTTATAATGTACACATATATGTAAATAT [XGTACX_site3695] | 11.3 ± 0.86
68 | TGCCCTAACCATACTACACACACTGCTCAAAATAGT [CACACA_site2219] | 10.5 ± 0.28
69 | TACAATATAAAATACACACACACAAACATATATTTA [CACACA_site5941] | 10.02 ± 0.014
70 | ATATATATATATAATACACACTTATGAAATGTCTAA [CACACA_site5077] | 10.2 ± 0.33
71 | TTAATACATACATTCACACACACTAATTGTATATTT [CACACA_site9362] | 10.005 ± 0.007
72 | TTCTTTTTTCGACACACACACACAAGAAGATATATA [CACACA_site7456] | 10.4 ± 0.48
73 | AACGAAAATAAGAAAAGTACAAAAAATACCAAATAA [XGTACX_site6171] | 11.2 ± 0.6
74 | ATACGAATAAATTTCGCATGCAGCATATATATCAAT [TGCATGCA_site612] | 9.71 ± 0.23
75 | TGTACAAATATGTTGAAAATAAAATTTCAATATATT [XGTACX_negctrl_site13] | 10.31 ± 0.014
76 | AATAAATAAAAAATTACACACATATATATAAATATA [CACACA_site3434] | 9.69
77 | ATATATGCATATATATGTACATATATATATATATAT [XGTACX_site7403] | 11.2 ± 0.67
78 | TATTTCATATGAAGAAGTACTATTAATAATTTCCTT [XGTACX_site6587] | 11.2 ± 0.79
79 | TAAATTATAAATTGCACACATATTTTTATATTTATA [CACACA_site2976] | 9.71 ± 0.16
80 | ATATTTTTAGATTCAGAAAAAAGATTCAACTTACTC [CACACA_negctrl_site1357] | 9.82 ± 0.14
81 | CAAAAATAATAGAATACATGCAAAAATAAATGTATA [TGCATGCA_site196] | 9.76 ± 0.23
82 | ATAATATATTTAATCATACACACATTTATGTACCTA [CACACA_site1719] | 10.7 ± 0.42
83 | AAAAATAAAGGGTGTGCACACAAAAATATATATATA [CACACA_site1727] | 10.8 ± 0.52
84 | TTTTTTTTTAAAACATAATAAAAAATAAAACAACCT [GTGCAC_negctrl_site92] | 10.2 ± 0.29
85 | ACATATTATTCAAGTGCACACTTTATATTTATGATT [CACACA_site3295] | 10.23 ± 0.028
86 | ATTTAATTCGTACATACACACGCACATATATATATA [CACACA_site8415] | 11.3 ± 0.78
87 | TATATGAAATATTATGCACACAATATATAATATGAT [CACACA_site936] | 9.94 ± 0.099
88 | AATAATTCATCATATGCACACACAATACCAAAATGT [CACACA_site7945] | 10.3 ± 0.15
